Source: PubChem BioAssay AID504832 (National Center for Advancing Translational Sciences (NCATS), 2011)
About 18,000 (5.8%) of roughly 310,000 compounds were called active. Inconclusive results, whose numbers are uncertain, are shown with a selection of clear calls. Calls follow the shape of the dose curve; as a rule, active = well fitted inhibition curve with a large enough effect; inconclusive = small, poorly fitted or top-dose-only effect, or another doubt; inactive = no such curve, though single readings can be large or run the other way. Potencies of inconclusive entries are left out as doubtful fits.

Experiment: Primary qHTS for delayed death inhibitors of the malarial parasite plastid, 48 hour incubation
Settings: P. falciparum luciferase growth in erythrocytes; series mostly up to 28.7 µM; activity change, negative = inhibition: at the top concentration
Method in brief: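 Here the parasites carry a stable luciferase gene and grow inside erythrocytes in Albumax-based RPMI medium with compound for one erythrocytic cycle. Activity is scored as loss of luminescent signal.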
% is scaled to controls: 0 for no effect and ±100 for the full control effect; potency is read from the fitted curve at half-maximal effect; tags tell the direction and shape of the fitted curve.

| Compound | activity change, negative = inhibition | Potency |
| --- | --- | --- |
| Cn1nnc2c[n+](CC(=O)c3ccc(Cl)cc3)cc(Br)c21 | inactive: -4.32% | – |
| Cc1c(CC(=O)N2CCN(C(=O)C3COc4ccccc4O3)CC2)c(=O)oc2c(C)c(O)ccc12 (configuration not stated) | – | inconclusive [inhibitor, partial curve] |
| CCN(CC)S(=O)(=O)c1cc(NC(=O)CNc2cccc(S(=O)(=O)N3CCCC3)c2)ccc1C | – | active: 11.7 µM |
| O=[N+]([O-])c1ccccc1OCCCOc1cccc2cccnc12 | inactive: 27.9% | – |
| COc1ccccc1CCNC(=O)c1csc2c1CCCC2 | – | inconclusive [inhibitor, partial curve, poor fit] |
| CCc1nnc(N/N=C/c2c(Cl)cccc2Cl)n1N | – | inconclusive [inhibitor, single point] |
| N#C/C(=C(/O)c1ccc(F)cc1)c1nc2ccccc2s1 | inactive: 194% | – |
| Cc1ccc(N(CC(=O)NCC2CCCO2)S(=O)(=O)c2ccc(Cl)cc2)cc1C (configuration not stated) | – | inconclusive [inhibitor, partial curve] |
| CCCCn1c(N)c(N(CC(C)C)C(=O)C2CCN(S(=O)(=O)c3ccccc3)CC2)c(=O)[nH]c1=O | – | inconclusive [inhibitor, single point] |
| CCOc1ccc(S(=O)(=O)N(CC)CC(=O)NC2CC2)cc1 | – | inconclusive [inhibitor, single point] |
| CCCCn1nc(NC(=O)CC(C)C)c2cc3cc(OC)ccc3nc21 | – | inconclusive [inhibitor, partial curve] |
| Oc1ccccc1CNc1ncc(Br)cc1Br | – | inconclusive [inhibitor, single point] |
| O=C(Cc1cccs1)N(Cc1cccs1)C1(C(=O)NC2CCCCC2)CCCCC1 | – | inconclusive [inhibitor, single point] |
| CCCCc1c(C)nc2ccc(Br)cc2c1SCCC#N | – | inconclusive [inhibitor, partial curve] |
| O=C(C1CCC1)N1CCN(Cc2ccccc2)CC1 | inactive: 38.2% | – |
| O=C(NC1CCCCC1)C(c1ccc(F)cc1)N(Cc1ccc2c(c1)OCO2)C(=O)c1cnsn1 (configuration not stated) | – | inconclusive [inhibitor, partial curve, poor fit] |
| CC1(C)CC2CC(C)(CN2S(=O)(=O)c2ccc(C(=O)Nc3ccc(Cl)c(S(=O)(=O)N4CCOCC4)c3)cc2)C1 (configuration not stated) | – | active: 9.28 µM |
| CN(C)c1nc(C(=O)O)nc(N2CCOCC2)n1 | inactive: 13.2% | – |
| CCCCn1c(SCC(=O)N2CCCCC2C)nc2cc(S(N)(=O)=O)ccc21 (configuration not stated) | – | inconclusive [inhibitor, partial curve, poor fit] |
| COc1ccc(-c2nn(-c3ccccc3)cc2C(=O)Nc2nccs2)cc1 | – | inconclusive [inhibitor, single point] |
| CCOC(=O)c1c(-c2ccc(OC)cc2)oc2cc(Br)c(O)cc12 | – | inconclusive [inhibitor, partial curve] |

| Compound | activity change, negative = inhibition | Potency |
| --- | --- | --- |
| CCOCC(=O)Nc1nc2ccccc2s1 | inactive: 433% | – |
| COc1ccc(C)cc1NC(=S)NC(C)c1ccc(OC)c(OC)c1 (configuration not stated) | – | inconclusive [inhibitor, single point] |
| Oc1ccccc1OCCOc1ccccc1OCCOc1ccccc1O | – | inconclusive [inhibitor, single point] |
| CC1CCN(C(=O)COC(=O)Cc2c[nH]c3ccccc23)CC1 | – | inconclusive [inhibitor, full curve, poor fit] |
| CCOC(=O)c1nnn(-c2nonc2N)c1-c1ccc(OCC)cc1 | – | active: 13.1 µM |
| CCOC(=O)Cc1csc(NC(=O)c2cc(-c3ccncc3)nc3ccccc23)n1 | – | inconclusive [inhibitor, single point] |
| Cc1ccc(CCC(=O)Nc2ccc([N+](=O)[O-])cc2)o1 | – | inconclusive [inhibitor, full curve, poor fit] |
| O=S(=O)(c1ccccc1)N1CCN(c2cc(-c3ccccc3)nc3ncnn23)CC1 | – | inconclusive [inhibitor, single point] |
| CC1(C)CC(=O)C2=C(C1)c1c(ccc3ccccc13)NC2c1ccc(C(=O)O)cc1 (configuration not stated) | – | inconclusive [inhibitor, single point] |
| O=C(Nc1ccc(-n2nncc2-c2ccco2)cc1)c1ccc(F)cc1 | – | inconclusive [inhibitor, partial curve, poor fit] |
| CC(=O)OCC12COC3c4ccccc4OC(C)(CC1C)C3C2C (configuration not stated) | – | inconclusive [inhibitor, single point] |
| CCCNC(=O)CSc1ccc(S(=O)(=O)N2CCCCC2)cn1 | – | inconclusive [inhibitor, single point] |
| N#CC1=C(N)NC(SCC(=O)Nc2ccccc2)=C(C#N)C12CCCC2 | – | active: 1.65 µM |
| CCOC(=O)C1=C(C)Nc2nc3ccccc3n2C1c1cccs1 (configuration not stated) | – | inconclusive [inhibitor, single point] |
| O=C(c1ccccc1)c1ccc(OCC(O)CN2CCN(Cc3ccccc3)CC2)cc1 (configuration not stated) | – | inconclusive [inhibitor, partial curve] |
| CSc1ccccc1C(=O)C1CCCN(Cc2cccc(C)n2)C1 (configuration not stated) | – | inconclusive [inhibitor, full curve, poor fit] |
| CC(=O)C1=NN(c2ccccc2)C(c2ccc3c(c2)OCO3)N1c1ccccc1 (configuration not stated) | – | inconclusive [inhibitor, single point] |
| CCOC(=O)C1CCN(S(=O)(=O)c2ccc3c(c2)N(C(C)=O)CC(C)S3)CC1 (configuration not stated) | – | inconclusive [inhibitor, single point] |
| COc1cc2c(cc1NC(=O)c1cccc([N+](=O)[O-])c1C)oc1ccccc12 | – | inconclusive [inhibitor, single point] |
| O=c1c2ccccc2sn1-c1ccc(S(=O)(=O)N2CCCC2)cc1 | – | inconclusive [inhibitor, partial curve, poor fit] |
| Cc1ccc2c(C)nc(NC3=NCN(CCc4ccccc4)CN3)nc2c1 | – | active: 2.62 µM |
